Measurements as given in the BET-seq Pho4 binding data (Le et al. 2018).
This is one part of the list. Values were computed here from the reads of four pooled replicates and scatter widely.

Each sequence was assayed against T1, Pho4 (S. cerevisiae) (UniProt P07270) (assay: relative binding free energy (BET-seq); higher = weaker binding). Conditions: reference: library average.
T1 sequence: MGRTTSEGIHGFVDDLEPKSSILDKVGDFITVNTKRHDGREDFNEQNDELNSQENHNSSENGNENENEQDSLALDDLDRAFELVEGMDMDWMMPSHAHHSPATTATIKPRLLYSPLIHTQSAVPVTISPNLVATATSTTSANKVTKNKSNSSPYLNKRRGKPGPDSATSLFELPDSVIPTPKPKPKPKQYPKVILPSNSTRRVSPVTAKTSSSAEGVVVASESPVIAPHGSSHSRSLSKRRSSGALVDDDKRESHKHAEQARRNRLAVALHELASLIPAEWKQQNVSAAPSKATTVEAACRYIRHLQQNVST

Sequence | relative binding free energy
TCGTGCACGTGTAGAT | 0.06 kcal/mol
TCGGACACGTGGGAGA | 0 kcal/mol
GCAGACACGTGTGGGC | 0.11 kcal/mol
TGCTCCACGTGCGTGG | 0 kcal/mol
TTTCTCACGTGAGTCG | 0.46 kcal/mol
GGTGACACGTGAGAAT | 0.38 kcal/mol
GTGGGCACGTGTTGGA | -0.01 kcal/mol
ATGTGCACGTGGTTAA | -0.12 kcal/mol
GTTTACACGTGATATT | 0.17 kcal/mol
ATGTTCACGTGTGACG | 0.38 kcal/mol
CGGTTCACGTGATGCG | 0.31 kcal/mol
TGCATCACGTGGGGTA | 0.05 kcal/mol
TATGGCACGTGGTGCC | -0.25 kcal/mol
AGGTGCACGTGGAGAA | -0.06 kcal/mol
TTATTCACGTGGCTTA | 0.06 kcal/mol
TGGGTCACGTGACTGT | 0.22 kcal/mol
TTTTACACGTGATTTA | 0.2 kcal/mol
TGCTTCACGTGGCGGA | 0.31 kcal/mol
TAAAGCACGTGTGTTC | 0.06 kcal/mol
CGATTCACGTGAATGG | 0.35 kcal/mol
CAGAGCACGTGGGTGT | -0.27 kcal/mol
ATGTGCACGTGGTCTT | -0.14 kcal/mol
TCGAGCACGTGGGGAG | -0.23 kcal/mol

Sequence | relative binding free energy
TTAGGCACGTGTAGTC | -0.07 kcal/mol
CGCTGCACGTGAATGG | 0.23 kcal/mol
TATTTCACGTGAAAGT | 0.23 kcal/mol
GTAAGCACGTGGTTCA | 0.01 kcal/mol
TTGGTCACGTGCGTGA | -0.11 kcal/mol
TCTGTCACGTGCCGTG | 0.17 kcal/mol
GGGAACACGTGCTGGG | 0.03 kcal/mol
CGAGTCACGTGGTAAG | 0.06 kcal/mol
GGCGTCACGTGTCTGT | 0.09 kcal/mol
TATGGCACGTGGTAGG | -0.17 kcal/mol
TATTGCACGTGATGCG | -0.02 kcal/mol
ATCGTCACGTGTCGTG | 0.06 kcal/mol
TGTTACACGTGTGTCG | 0.15 kcal/mol
AGTATCACGTGGTAGA | 0.06 kcal/mol
GGTTGCACGTGGAGCC | 0.07 kcal/mol
TAGGGCACGTGTAAGT | 0.05 kcal/mol
ATGTGCACGTGCGGTT | -0.05 kcal/mol
TTCTTCACGTGTGATA | 0.23 kcal/mol
TGGTACACGTGTCTTT | 0.16 kcal/mol
TGCGTCACGTGTAAGA | 0.15 kcal/mol
CGGGCCACGTGTTGGC | 0 kcal/mol
TTAAGCACGTGAGCGT | 0.07 kcal/mol
AATGGCACGTGTCATT | 0.05 kcal/mol

Sequence | relative binding free energy
ATGTGCACGTGTTATC | -0.05 kcal/mol
TTGCACACGTGTGGGA | 0.02 kcal/mol
GGTTTCACGTGTTATC | 0.46 kcal/mol
GTGTGCACGTGGGCAC | -0.05 kcal/mol
CTGTTCACGTGGTCTA | 0.2 kcal/mol
ACGATCACGTGTGGTG | 0.09 kcal/mol
TCGAGCACGTGTGGTC | 0.05 kcal/mol
CGTAGCACGTGAGGTA | 0.3 kcal/mol
TCGTGCACGTGTGGTA | -0.13 kcal/mol
ACGTGCACGTGGTGGC | -0.14 kcal/mol
AAAGTCACGTGAATTG | 0.41 kcal/mol
ATACTCACGTGTGTAT | 0.2 kcal/mol
AGTAACACGTGTGCGG | -0.01 kcal/mol
AGATTCACGTGTAGTA | 0.18 kcal/mol
GTTGTCACGTGTGGGG | 0.15 kcal/mol
TGAGTCACGTGTGCGA | 0.07 kcal/mol
TTTAACACGTGGGGGA | -0.14 kcal/mol
TTATACACGTGAGAGA | 0.34 kcal/mol
TTGGACACGTGTATTA | 0.12 kcal/mol
TATAACACGTGGGCTG | -0.24 kcal/mol
AAATTCACGTGAGTAG | 0.4 kcal/mol
AGGGACACGTGTCATG | -0.01 kcal/mol
AATGTCACGTGACTGG | 0.25 kcal/mol

Sequence | relative binding free energy
ATTGGCACGTGTAGGT | -0.08 kcal/mol
TGGGTCACGTGGGGAT | 0.04 kcal/mol
GAAGGCACGTGTAGAA | 0.1 kcal/mol
ATGGGCACGTGTGTAC | -0.06 kcal/mol
GGGGGCACGTGATTGC | 0.04 kcal/mol
ATTCTCACGTGGGTTG | 0.12 kcal/mol
AGTGTCACGTGGGACG | 0.07 kcal/mol
GTTGGCACGTGAATAA | 0.06 kcal/mol
AGGACCACGTGATGTG | -0.03 kcal/mol
TGTGGCACGTGTTCAT | -0.03 kcal/mol
GAAGGCACGTGCGTTG | -0.1 kcal/mol
GAGGTCACGTGGTGCT | 0.17 kcal/mol
TTTCACACGTGGGCGG | -0.14 kcal/mol
TGGGGCACGTGTGGGT | 0.03 kcal/mol
AGACGCACGTGTTTGG | -0.15 kcal/mol
AGGTCCACGTGAGTTG | 0.36 kcal/mol
GTGCGCACGTGTGTAG | 0.01 kcal/mol
ATTTGCACGTGTATAG | -0.07 kcal/mol
ATGTTCACGTGAAGTG | 0.32 kcal/mol
TACAGCACGTGGCAGG | 0 kcal/mol
ATCAGCACGTGGTAGG | -0.32 kcal/mol
TGGGTCACGTGACAGT | 0.28 kcal/mol
AGGGTCACGTGCAGAT | 0.04 kcal/mol

Sequence | relative binding free energy
TTAGGCACGTGTACGT | -0.16 kcal/mol
TGGGTCACGTGTTATC | 0.3 kcal/mol
GTTTGCACGTGGCGCA | -0.06 kcal/mol
AGATGCACGTGTCAGG | 0.02 kcal/mol
CCTGGCACGTGGTGCG | -0.12 kcal/mol
ATGTTCACGTGATTTG | 0.28 kcal/mol
TGATTCACGTGCATTG | 0.27 kcal/mol
TTATTCACGTGAAGGC | 0.39 kcal/mol
CGCGCCACGTGGGGGT | -0.35 kcal/mol
TGGAGCACGTGCTTGA | -0.03 kcal/mol
TGGAGCACGTGGTGCT | -0.1 kcal/mol
AAAGTCACGTGGCGGT | 0.14 kcal/mol
AGGAGCACGTGTTATT | -0.09 kcal/mol
GCATTCACGTGGGCGG | 0.2 kcal/mol
TTATCCACGTGAAGGG | 0.36 kcal/mol
GGCTTCACGTGGTGCG | 0.18 kcal/mol
CGGCGCACGTGAGGAG | 0.22 kcal/mol
GGTGCCACGTGGGGCA | -0.03 kcal/mol
AGGGTCACGTGGGTCG | -0.03 kcal/mol
TGAGACACGTGCGTAG | -0.03 kcal/mol
GTGAACACGTGCGGTG | -0.04 kcal/mol
CAAAACACGTGGTGGT | -0.02 kcal/mol
TATTACACGTGGTGCT | 0.04 kcal/mol
